Source: the supplement of paper PMC4967469

compound: COc1ncc(-c2ccc3nccc(-c4ccnnc4)c3c2)cc1NS(=O)(=O)c1ccc(F)cc1F [GSK2126458]; test: Viability of human cancer cell lines after 72 h of drug (GDSC screen); conditions: top dose inferred
Description: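 Human cancer cell lines in 384-well plates, medium with 10% serum, drug for 72 h over a 256-fold dose range (nine 2-fold or five 4-fold steps up to the top dose). Adherent lines were fixed and stained with the nucleic acid dye Syto60, suspension lines read with resazurin; signal relative to control wells, capped at 0 and 100%. One two-parameter sigmoid per drug and line, fitted in a mixed model over all curves with the slope shared within a line.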

Row | Cell Line | AUC | IC50
1 | NCI-H838 (lung adenocarcinoma, adherent, top dose 0.128 µM) | 0.983 | > 128 nM
2 | NCI-H841 (small cell lung carcinoma, adherent, top dose 0.128 µM) | 0.768 | 47.9 nM
3 | NCI-H847 (small cell lung carcinoma, adherent, top dose 0.128 µM) | 0.384 | 4.11 nM
4 | NCI-H1048 (small cell lung carcinoma, adherent, top dose 0.128 µM) | 0.325 | 2.75 nM
5 | NCI-H1092 (small cell lung carcinoma, suspension, top dose 0.128 µM) | 0.874 | 127 nM
6 | NCI-H1155 (large cell lung carcinoma, suspension, top dose 0.128 µM) | 0.926 | > 128 nM
7 | NCI-H1299 (large cell lung carcinoma, adherent, top dose 0.128 µM) | 0.888 | > 128 nM
8 | NCI-H1304 (small cell lung carcinoma, suspension, top dose 0.128 µM) | 0.544 | 10.7 nM
9 | NCI-H1355 (lung adenocarcinoma, adherent, top dose 0.128 µM) | 0.945 | > 128 nM
10 | NCI-H1395 (lung adenocarcinoma, adherent, top dose 0.128 µM) | 0.881 | > 128 nM
11 | NCI-H1417 (small cell lung carcinoma, suspension, top dose 0.128 µM) | 0.684 | 29.1 nM
12 | NCI-H1435 (lung adenocarcinoma, semi-adherent, top dose 0.128 µM) | 0.952 | > 128 nM
13 | NCI-H1436 (small cell lung carcinoma, suspension, top dose 0.128 µM) | 0.788 | 64.8 nM
14 | NCI-H1437 (lung adenocarcinoma, adherent, top dose 0.128 µM) | 0.666 | 23.7 nM
15 | NCI-H1563 (lung adenocarcinoma, adherent, top dose 0.128 µM) | 0.71 | 35.5 nM
16 | NCI-H1568 (lung adenocarcinoma, adherent, top dose 0.128 µM) | 0.751 | 51.4 nM
17 | NCI-H1573 (lung adenocarcinoma, adherent, top dose 0.128 µM) | 0.82 | 70.9 nM
18 | NCI-H1581 (large cell lung carcinoma, semi-adherent, top dose 0.128 µM) | 0.857 | 91.1 nM
19 | NCI-H1623 (lung adenocarcinoma, adherent, top dose 0.128 µM) | 0.927 | > 128 nM
20 | NCI-H1648 (lung adenocarcinoma, adherent, top dose 1.024 µM) | 0.18 | 6.42 nM
21 | NCI-H1651 (lung adenocarcinoma, adherent, top dose 0.128 µM) | 0.961 | > 128 nM
22 | NCI-H1666 (lung adenocarcinoma, semi-adherent, top dose 1.024 µM) | 0.829 | 724 nM
23 | NCI-H1688 (small cell lung carcinoma, adherent, top dose 0.128 µM) | 0.939 | > 128 nM

Row | Cell Line | AUC | IC50
24 | NCI-H1693 (lung adenocarcinoma, adherent, top dose 1.024 µM) | 0.725 | 419 nM
25 | NCI-H1694 (small cell lung carcinoma, suspension, top dose 0.128 µM) | 0.82 | 73.1 nM
26 | NCI-H1703 (lung adenocarcinoma, adherent, top dose 0.128 µM) | 0.545 | 10.9 nM
27 | NCI-H1734 (lung adenocarcinoma, adherent, top dose 1.024 µM) | 0.82 | 668 nM
28 | NCI-H1755 (lung adenocarcinoma, adherent, top dose 0.128 µM) | 0.956 | > 128 nM
29 | NCI-H1770 (non-small cell lung carcinoma, suspension, top dose 0.128 µM) | 0.968 | > 128 nM
30 | NCI-H1781 (lung adenocarcinoma, adherent, top dose 0.128 µM) | 0.719 | 33.4 nM
31 | NCI-H1792 (lung adenocarcinoma, adherent, top dose 0.128 µM) | 0.638 | 18.5 nM
32 | NCI-H1793 (lung adenocarcinoma, adherent, top dose 0.128 µM) | 0.724 | 45.6 nM
33 | NCI-H1836 (small cell lung carcinoma, suspension, top dose 0.128 µM) | 0.828 | 89.6 nM
34 | NCI-H1838 (lung adenocarcinoma, adherent, top dose 0.128 µM) | 0.888 | > 128 nM
35 | NCI-H1869 (lung squamous cell carcinoma, adherent, top dose 0.128 µM) | 0.802 | 72.8 nM
36 | NCI-H1876 (small cell lung carcinoma, adherent, top dose 0.128 µM) | 0.574 | 12.8 nM
37 | NCI-H1915 (large cell lung carcinoma, adherent, top dose 0.128 µM) | 0.93 | > 128 nM
38 | NCI-H1944 (lung adenocarcinoma, adherent, top dose 0.128 µM) | 0.626 | 18.2 nM
39 | NCI-H1975 (lung adenocarcinoma, adherent, top dose 1.024 µM) | 0.421 | 37.6 nM
40 | NCI-H1993 (lung adenocarcinoma, adherent, top dose 0.128 µM) | 0.831 | 120 nM
41 | NCI-H2009 (lung adenocarcinoma, adherent, top dose 0.128 µM) | 0.954 | > 128 nM
42 | NCI-H2023 (lung adenocarcinoma, adherent, top dose 0.128 µM) | 0.891 | > 128 nM
43 | NCI-H2029 (small cell lung carcinoma, adherent, top dose 0.128 µM) | 0.925 | > 128 nM
44 | NCI-H2030 (lung adenocarcinoma, adherent, top dose 0.128 µM) | 0.741 | 43.8 nM
45 | NCI-H2052 (mesothelioma, adherent, top dose 0.128 µM) | 0.953 | > 128 nM
46 | NCI-H2081 (small cell lung carcinoma, suspension, top dose 0.128 µM) | 0.809 | 71.7 nM

Row | Cell Line | AUC | IC50
47 | NCI-H2085 (lung adenocarcinoma, adherent, top dose 0.128 µM) | 0.452 | 5.86 nM
48 | NCI-H2087 (lung adenocarcinoma, semi-adherent, top dose 1.024 µM) | 0.709 | 263 nM
49 | NCI-H2110 (non-small cell lung carcinoma, adherent, top dose 0.128 µM) | 0.835 | 87.3 nM
50 | NCI-H2122 (lung adenocarcinoma, adherent, top dose 1.024 µM) | 0.784 | 405 nM
51 | NCI-H2135 (non-small cell lung carcinoma, adherent, top dose 0.128 µM) | 0.822 | 71.6 nM
52 | NCI-H2141 (small cell lung carcinoma, suspension, top dose 0.128 µM) | 0.796 | 57.8 nM
53 | NCI-H2170 (lung squamous cell carcinoma, adherent, top dose 0.128 µM) | 0.937 | > 128 nM
54 | NCI-H2171 (small cell lung carcinoma, suspension, top dose 0.128 µM) | 0.562 | 11.5 nM
55 | NCI-H2172 (non-small cell lung carcinoma, adherent, top dose 0.128 µM) | 0.928 | > 128 nM
56 | NCI-H2196 (small cell lung carcinoma, adherent, top dose 0.128 µM) | 0.832 | 87.6 nM
57 | NCI-H2227 (small cell lung carcinoma, semi-adherent, top dose 0.128 µM) | 0.678 | 26.9 nM
58 | NCI-H2228 (lung adenocarcinoma, adherent, top dose 0.128 µM) | 0.767 | 73.5 nM
59 | NCI-H2291 (lung adenocarcinoma, adherent, top dose 0.128 µM) | 0.976 | > 128 nM
60 | NCI-H2342 (lung adenocarcinoma, adherent, top dose 0.128 µM) | 0.937 | > 128 nM
61 | NCI-H2347 (lung adenocarcinoma, adherent, top dose 0.128 µM) | 0.782 | 65.9 nM
62 | NCI-H2405 (lung adenocarcinoma, adherent, top dose 0.128 µM) | 0.853 | 117 nM
63 | NCI-H2444 (non-small cell lung carcinoma, adherent, top dose 0.128 µM) | 0.919 | > 128 nM
64 | NCI-H2452 (mesothelioma, adherent, top dose 0.128 µM) | 0.984 | > 128 nM
65 | NCI-H3122 (lung adenocarcinoma, adherent, top dose 0.128 µM) | 0.627 | 18.2 nM
66 | NCI-SNU-1 (stomach, suspension, top dose 0.128 µM) | 0.79 | 59.1 nM
67 | NCI-SNU-5 (stomach, suspension, top dose 0.128 µM) | 0.976 | > 128 nM
68 | NCI-SNU-16 (stomach, suspension, top dose 0.128 µM) | 0.991 | > 128 nM
69 | NEC8 (testis, adherent, top dose 0.128 µM) | 0.944 | > 128 nM

The IC50 comes from the fitted curve, where viability falls to half of the control; where the fit passes the top or lowest dose, that dose stands as a limit. AUC is the area under the same curve over the 256-fold range up to the top dose, as a fraction; values near 1 show little effect. The top dose, if marked as inferred, comes from the curve model; the source does not state it.
